The source gives no read counts; variants with many changes may rest on few reads.
B1: OR4K15 (parent)
chain: GUUAACGGUCAUAGGCCAUGGAAACUAGGAGCACCAUUUCGCUGCCAGUGAAGAAAUGAACAAAGAAAAUCUGGGCCAGGCAGGCAUCAAAAGAAAUAGUCUUGCGCUCAACCAGAAAGUCUGUAAUCAUUUUAAGGGUA

Variants of: B1
Assay: self-cleavage, relative activity (ratio to wild type); higher = more cleavage; in vitro, sequencing; the parent is a self-cleaving ribozyme
Variant U39C A89U A90G has a self-cleavage of 1.8.
Variant U39C A89U A96G has a self-cleavage of 2.34.
U39C A90G A114U showed a self-cleavage of 0.08.
For U39C A90G U139A, the self-cleavage was 1.06.
U39C A91G U100A showed a self-cleavage of 0.25.
With U39C A94G A98G U103C the self-cleavage was 0.07.
In the case of U39C A94G A126G, the self-cleavage is reported as 0.28.
With U39C A94G G104A A135C the self-cleavage was 0.04.
U39C A94G U122C gave a self-cleavage of 1.45.
Variant U39C A96G A116G has a self-cleavage of 1.22.
For U39C A110G A111U U120C, the self-cleavage was 0.
For U39C A111G U122C, the self-cleavage was 0.01.
U39C A111G U127C gave a self-cleavage of 0.01.
With U39C A114G A134G the self-cleavage was 0.38.
For U39C A116G U131C, the self-cleavage was 1.13.
U39C A117G A118G gave a self-cleavage of 2.31.
In the case of U39C A135G G138U U139A, the self-cleavage is reported as 2.46.
With U39C C40U A69C U70C U122C the self-cleavage was 0.58.
U39C C46U A59G A98G A111G showed a self-cleavage of 0.01.
With U39C C76U U100A A117G the self-cleavage was 0.05.
U39C C88A A94G A126G gave a self-cleavage of 0.32.
U39C G48A A82C A91G U100C showed a self-cleavage of 0.23.
For U39C G58A U100C, the self-cleavage was 1.88.
Work on U39C G73A U108C yielded a self-cleavage of 0.03.
Variant U39C G74A A82G U122A has a self-cleavage of 0.22.
In the case of U39C G93A A118G C128G, the self-cleavage is reported as 0.75.
U39C G106A A129G gave a self-cleavage of 0.01.
In the case of U39C U43A A66G A78G A91U, the self-cleavage is reported as 0.25.
In the case of U39C U43A A66G A89G, the self-cleavage is reported as 1.2.
U39C U43A A91G U102C U130C gave a self-cleavage of 1.4.
For U39C U43A A95G U133C, the self-cleavage was 0.88.
For U39C U43A A98G, the self-cleavage was 1.67.
Work on U39C U43C A126U yielded a self-cleavage of 1.59.
Variant U39C U49C A51G has a self-cleavage of 0.9.
For U39C U49C A56C A59G A66G A91G, the self-cleavage was 0.81.
Work on U39C U49C A90G A114U yielded a self-cleavage of 0.03.
Variant U39C U49G A68G has a self-cleavage of 1.48.
In the case of U39C U57A A92U, the self-cleavage is reported as 1.
With U39C U72A U120A the self-cleavage was 0.11.
For U39C U72C U87C A140G, the self-cleavage was 0.18.
For U39C U103C A118G, the self-cleavage was 0.85.
U39C U108A A140G gave a self-cleavage of 0.01.
U39C U120G U130C showed a self-cleavage of 1.63.
In the case of U39C U122C A135G, the self-cleavage is reported as 1.84.
U39C U127C A140U showed a self-cleavage of 0.92.
Variant U39C U127C G137A has a self-cleavage of 1.5.
With U39C U127C U132C the self-cleavage was 0.93.
U39G A56G U57G A60G showed a self-cleavage of 0.76.
For U39G A59G A69G, the self-cleavage was 1.23.
U39G A59G A89G gave a self-cleavage of 1.52.
In the case of U39G A90U A118G, the self-cleavage is reported as 0.85.
For C40A A51G A95G A96G A126G A140G, the self-cleavage was 1.46.
C40A A60G U70C gave a self-cleavage of 1.46.
Work on C40A A63G U100C U102A A126G yielded a self-cleavage of 0.9.
In the case of C40A U43A U49C A55G A86U, the self-cleavage is reported as 1.47.
With C40G A63G A94C U120C the self-cleavage was 1.32.
Work on C40G U87C A91G A126G yielded a self-cleavage of 0.42.
With C40G U87C U131C the self-cleavage was 1.77.
C40U A47U A114U showed a self-cleavage of 0.01.
C40U A51G U87C gave a self-cleavage of 1.25.
In the case of C40U A52G A67G, the self-cleavage is reported as 0.49.
C40U A52G U100C A114U gave a self-cleavage of 0.1.
Variant C40U A54G A64G A95G has a self-cleavage of 2.91.
C40U A55G A64U U130C showed a self-cleavage of 0.54.
For C40U A55G C61U A118G, the self-cleavage was 1.
For C40U A56G A96G A117U, the self-cleavage was 0.64.
C40U A59U A63U U72A G79A showed a self-cleavage of 0.17.
For C40U A62C A68G G73A U122C, the self-cleavage was 0.13.
Work on C40U A62U U130C yielded a self-cleavage of 1.41.
Variant C40U A64G A67G A91G U108C has a self-cleavage of 0.03.
With C40U A64G U108C U139C the self-cleavage was 0.01.
For C40U A66G A94G, the self-cleavage was 1.45.
Work on C40U A67G A68G A69G G80C U131C A134G yielded a self-cleavage of 0.03.
In the case of C40U A67G A118G, the self-cleavage is reported as 1.54.
Work on C40U A68G A82G U108C yielded a self-cleavage of 0.02.
C40U A69G A92G gave a self-cleavage of 1.04.
C40U A78G A110U gave a self-cleavage of 0.51.
For C40U C101A A129G, the self-cleavage was 0.1.
Work on C40U G41U U108C yielded a self-cleavage of 0.02.
In the case of C40U U43C A51G A54U U100A U127C, the self-cleavage is reported as 0.4.
For C40U U57C A118G A125G U132C, the self-cleavage was 0.09.
With C40U U127A U132C the self-cleavage was 2.48.
In the case of G41A A51G A54U A55U U103C, the self-cleavage is reported as 0.18.
G41A A51G U70C gave a self-cleavage of 0.94.
With G41A A54G U133C the self-cleavage was 2.29.
Variant G41A A59G U100C A117G has a self-cleavage of 2.23.
In the case of G41A A62G A110G U120C, the self-cleavage is reported as 0.04.
In the case of G41A A62U A90G U120C A126G, the self-cleavage is reported as 0.23.
For G41A A68G A95U U97C U122C, the self-cleavage was 0.69.
For G41A A91G U102G U133C, the self-cleavage was 1.19.
With G41A A95G G99U U127C A129G the self-cleavage was 0.03.
With G41A C81U A89U the self-cleavage was 0.61.
G41A C88U U108C gave a self-cleavage of 0.
With G41A U43C A86G A94G A96G U102C the self-cleavage was 1.08.
Work on G41A U49G A62G U72C A96G yielded a self-cleavage of 0.11.
For G41A U72C A86G U108C, the self-cleavage was 0.01.
Variant G41A U100C A110G has a self-cleavage of 0.15.
For G41A U100C U102A, the self-cleavage was 1.95.
Variant G41A U127C A129G has a self-cleavage of 0.44.
G41C A68G U131A gave a self-cleavage of 1.36.
With G41U A59G U87C U103A the self-cleavage was 0.35.
With G41U A60U U72G A90U U131C the self-cleavage was 0.14.
Variant G41U A67G U108C U133C has a self-cleavage of 0.01.
In the case of C42A A55G U87C A95G, the self-cleavage is reported as 1.27.
With C42A U49C A89G the self-cleavage was 0.28.
In the case of C42A U103C U132C, the self-cleavage is reported as 1.07.
Variant C42U A52G U100C has a self-cleavage of 2.41.
In the case of C42U A54U A59G, the self-cleavage is reported as 0.98.
C42U A55G U100C A129U gave a self-cleavage of 1.65.
With C42U A63G U70C G73A the self-cleavage was 0.24.
Variant C42U A78G A95G A129G has a self-cleavage of 0.51.
Work on C42U A82U A110C yielded a self-cleavage of 0.03.
In the case of C42U A94G C121U, the self-cleavage is reported as 1.71.
Variant C42U U102A A117G has a self-cleavage of 1.4.
U43A A51G A110U C121U A125G showed a self-cleavage of 1.31.
With U43A A51G A129G the self-cleavage was 1.02.
Work on U43A A51G U130C yielded a self-cleavage of 1.31.
With U43A A52G A54G the self-cleavage was 1.91.
In the case of U43A A52G A89G C112A A118G, the self-cleavage is reported as 0.04.
U43A A52G U130C gave a self-cleavage of 0.87.
With U43A A52U U100C A111G C113U the self-cleavage was 0.02.
With U43A A54G A55G A91G A94G U103C the self-cleavage was 0.29.
Variant U43A A54G A67G has a self-cleavage of 0.87.
U43A A55G A95G U108A A118G U130C U132C showed a self-cleavage of 0.01.
With U43A A55G U70C A86U the self-cleavage was 1.16.
U43A A55U A69G U70C showed a self-cleavage of 0.41.
U43A A55U A82G A86U A94G A96U U102C U120C U132C showed a self-cleavage of 0.65.
Work on U43A A56G U72C A134G yielded a self-cleavage of 0.1.
Variant U43A A56G U102A U124C U139C has a self-cleavage of 0.23.
For U43A A59G A69G C81U A129G U130G U139C, the self-cleavage was 0.02.
U43A A60U U72A U131C showed a self-cleavage of 0.65.
In the case of U43A A62U U87A, the self-cleavage is reported as 2.
U43A A64G A67G U102C U139A showed a self-cleavage of 2.36.
For U43A A66C C71A, the self-cleavage was 0.2.
U43A A68G A90U U132A gave a self-cleavage of 1.44.
In the case of U43A A69G A89G, the self-cleavage is reported as 1.73.
For U43A A69G A90G, the self-cleavage was 0.89.
With U43A A78G A98G C105U U108C the self-cleavage was 0.01.
U43A A78U A94G U102C showed a self-cleavage of 1.65.
With U43A A78U U102C G136A A140G the self-cleavage was 1.41.
For U43A A82G G138A, the self-cleavage was 0.4.
With U43A A90G C112U A114G the self-cleavage was 0.01.
With U43A A91C A117G the self-cleavage was 1.84.
For U43A A91G A114G, the self-cleavage was 0.4.
In the case of U43A A92G U102C, the self-cleavage is reported as 1.79.
With U43A A110G U139C the self-cleavage was 0.2.
U43A A117U A135G showed a self-cleavage of 1.09.
U43A A125U U131C A140G showed a self-cleavage of 1.51.
Work on U43A C105A A111G A114G yielded a self-cleavage of 0.02.
Work on U43A G44A A55G A56U U103C yielded a self-cleavage of 0.68.
In the case of U43A G80A A129G, the self-cleavage is reported as 0.17.
Work on U43A U49A A60G U72A G123U yielded a self-cleavage of 0.39.
For U43A U49C A56G U97A U108C, the self-cleavage was 0.
For U43A U49G A66G, the self-cleavage was 1.25.
U43A U57A A67C gave a self-cleavage of 1.37.
Variant U43A U57A G104A has a self-cleavage of 0.07.
Work on U43A U57C A82U U108C yielded a self-cleavage of 0.05.
Work on U43A U70C A114U yielded a self-cleavage of 0.04.
U43A U87C A94G U127C gave a self-cleavage of 1.83.
For U43A U97C U133C, the self-cleavage was 2.58.
U43A U103C C113U showed a self-cleavage of 0.05.
With U43A U108A U120C the self-cleavage was 0.
U43C A47G A56G gave a self-cleavage of 1.35.
For U43C A47G A67G, the self-cleavage was 1.34.
With U43C A47G A89G the self-cleavage was 0.95.
For U43C A47G A91G A111G, the self-cleavage was 0.02.
With U43C A47U A60U U108C the self-cleavage was 0.01.

Source: the RNAGym collection of RNA variant scans (doi:10.7554/elife.90254)
